Assay results from patent publication US8975247B2, “Methods and compositions of treating a flaviviridae family viral infection” (priority 2009, dated 2015).
Like-named read-outs stand apart in the source and are kept apart here.

Legend:
[1] = test system: HCV genotype 2a infectious clone; assay: HCV genotype 2a infectious clone assay (Renilla luciferase); type: cell-based; details: Hepatitis C virus; for activity at 5 µM: read-out: 2a % activity @ 5 μM, % replication activity of control remaining at 5 μM test compound
Huh7.5 cells = type: cell-based

Structure (SMILES) | activity at 5 µM [1] [%] | 2a Cell Viability @ 5 μM (Huh7.5 cells; human, 3 days, 5 μM) | 2a Cell Viability @ 10 μM (Huh7.5 cells; human, 3 days, 10 μM) | further results
Clc1cccc(Cn2c(CN3CCCC3)nc3ccccc32)c1 [EBP156] | 57 | 89% | 93% | 
Clc1ccccc1Cn1c(CN2CCCC2)nc2ccccc21 [EBP157] | 90 | >100, >100% | >100, >100% | 
c1ccc2c(c1)nc(CN1CCCC1)n2CC1CCCCC1 [EBP160] | 86 |  |  | 2a Cell Viability @ 5 μM (Huh7.5 cells; % cell survival at 5 μM): >100, >100%; 2a Cell Viability @ 10 μM (Huh7.5 cells; % cell survival at 10 μM): >100, >100%
Clc1ccc(Cn2c(CN3CCCCCC3)nc3ccccc32)cc1 [EBP165] | 69 |  |  | 
Cc1ccccc1Cn1cnc2c(NS(C)(=O)=O)c(C)c(C)cc21 [EBP166] | 86 | 97% | 91% | 
Cc1cccc(Cn2cnc3c(NS(C)(=O)=O)c(C)c(C)cc32)c1 [EBP167] | 83 | >100, >100% | >100, >100% | 
Cc1cc2c(ncn2Cc2ccccc2)c(NS(C)(=O)=O)c1C [EBP168] | 87 | > 100% | 96% | 
Cc1cccc(Cn2c(C)nc3c(NS(C)(=O)=O)c(C)c(C)cc32)c1 [EBP169] | 86 | > 100% | 97% | 
Cc1cccc(Cn2cnc3c(NS(=O)(=O)C(F)(F)F)c(C)c(C)cc32)c1 [EBP170] | 33 | 94% | 97% | 
Cc1cc2c(ncn2C)c(NS(C)(=O)=O)c1C [EBP171] | 80 |  |  | 
Cc1ccc2c(c1)nc(CN1CCCC1)n2Cc1ccc(Cl)cc1 [EBP183] | 81 | > 100% | 99% | 
COCC1CCCN1Cc1nc2cc(C)ccc2n1Cc1ccc(Cl)cc1 (stereo not drawn) [EBP184] | 82 | > 100% | 90% | 
COCC1CCCN1Cc1nc2c(C)c(C)ccc2n1Cc1ccc(Cl)cc1 (stereo not drawn) [EBP186] | 80 | > 100% | 99% | 
Clc1ccc(Cn2c(CN3CCCC3)nc3ccccc32)s1 [EBP187] | 78 | > 100% | 99% | 
CC(C)c1ccc(Cn2c(CN3CCCC3)nc3ccccc32)cc1 [EBP198] | 79 |  |  | 
Oc1cc2ncn(Cc3ccc(Cl)cc3)c2cc1O [EBP215] |  | 97% | 95% | 
Clc1ccc(CCn2cnc3ccccc32)cc1 [EBP228] | 81 |  |  | 

Structure (SMILES) | activity at 5 µM [1] [%] | 2a Cell Viability @ 5 μM (Huh7.5 cells; human, 3 days, 5 μM) | 2a Cell Viability @ 10 μM (Huh7.5 cells; human, 3 days, 10 μM) | further results
Cc1cc2nc(CN3CCCC3C(N)=O)n(Cc3ccc(Cl)cc3)c2cc1C (stereo not drawn) [EBP234] | 78 |  |  | 
Cc1cc2c(ncn2Cc2ccc(Cl)cc2)c(NC(=O)c2ccccc2)c1C [EBP242] | 86 |  |  | 
Cc1cc2nc(CN3CCC[C@H]3C)n(Cc3ccc(Cl)cc3)c2cc1C [EBP273] |  | 95% | 82% | 
Clc1ccc(Cn2c(C[N+]3(Cc4ccc(Cl)cc4)CCCC3)nc3ccccc32)cc1 [EBP310] | > 10 |  |  | 
C[N+]1(Cc2nc3ccccc3n2Cc2ccc(Cl)cc2)CCCC1 [EBP311] | 83 |  |  | 
Cc1cc2nc(/C=C/C3CCCCC3)n(Cc3ccc(Cl)cc3)c2cc1C [EBP321] | 56 |  |  | 
Cc1cc2nc(COC3CCCCC3)n(Cc3ccc(Cl)cc3)c2cc1C [EBP324] | 68 |  |  | 
Cc1cc2nc(COC(C)C)n(Cc3ccc(Cl)cc3)c2cc1C [EBP326] | 78 |  |  | 
Cc1c[nH]c(/C=C/c2nc3cc(C)c(C)cc3n2Cc2ccc(Cl)cc2)n1 [EBP362] | 71 |  |  | 
Cc1cc2nc(CCC3CCCCC3)n(Cc3ccc(Cl)cc3)c2cc1C [EBP363] | 76 |  |  | 
Cc1cc2nc(CCC(C)C)n(Cc3ccc(Cl)cc3)c2cc1C [EBP364] | 68 |  |  | 
COc1ccc2c(c1)nc(CN1CCCC1)n2Cc1ccc(Cl)cc1 [EBP365] | 87 |  |  | 
Oc1ccc2c(c1)nc(CN1CCCC1)n2Cc1ccc(Cl)cc1 [EBP366] | 89 |  |  | 
Cc1cc2nc(CN3CCC[C@@H]3CO)n(Cc3ccc(Cl)cc3)c2cc1C [EBP408] | 90 |  |  | 
Cc1ccc2nc(CN3CCC[C@@H]3C)n(Cc3ccc(Cl)cc3)c2c1 [EBP490] | < 50 |  |  | EC50 ([1]; read-out: 2a EC50 (inferred from <50% replication activity at 5 μM)): < 5 µM
O=CCCCNCc1nc2ccccc2n1Cc1ccc(Cl)cc1 [EBP499] | 83 |  |  | 
